# In PubChem BioAssay AID686978 (National Center for Advancing Translational Sciences (NCATS), 2013):
# “And” between values parts separate entries of the source, which are not always exact repeats. Equal values may be shown once. In all, about 420,000 compounds went through this assay and about 64,000 (15%) were called active. Inconclusive results, whose numbers are uncertain, are shown with a selection of clear calls. Calls follow the shape of the dose curve; as a rule, active = well fitted inhibition curve with a large enough effect; inconclusive = small, poorly fitted or top-dose-only effect; inactive = flat fitted curve, though single readings scatter. Where the call is inconclusive, the potency comes from a doubtful curve fit.
# Experiment: qHTS for Inhibitors of human tyrosyl-DNA phosphodiesterase 1 (TDP1): qHTS in cells in absence of CPT; also: nearly all actives have a fitted effect of over 55% in size
# Conditions: DT40 Tdp1-/- hTDP1 cells, no CPT, ATP luminescence, 48 h; activity change, negative = growth inhibition: at 46.2 µM (top of the series) unless noted
# Outline: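 Chicken DT40 Tdp1-/- cells complemented with human TDP1, screened without camptothecin (DMSO vehicle only), 400 cells/well. Compounds pin-transferred, cells incubated at 37 °C for at least 48 hr. Growth read as ATP-dependent luminescence (CellTiter-Glo, 30 min at RT).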
# % is scaled to controls: 0 for no effect and ±100 for the full control effect; potency is read from the fitted curve at half-maximal effect; tags tell the direction and shape of the fitted curve.
SMILES,Potency,"activity change, negative = growth inhibition"
O=C(NNC(=O)C1CC2CCC1C2)c1sc2ccccc2c1Cl (stereo not drawn),"inconclusive: 13 µM [inhibitor, partial curve, poor fit]",–
C#CCOc1ccc(C2CC(=O)Nc3c2c(C)nn3-c2nc(C)cc(C)n2)cc1 (stereo not drawn),active: 20.6 µM,–
CCN=c1sc(C(=O)NCCc2ccccc2)cc(=O)n1CC,active: 18.4 µM,–
CCOc1ccccc1NC(=O)Nc1ccc(Cl)cc1,"inconclusive: 18.4 µM [inhibitor, single point]",–
CN(C(=O)c1cccc(NC(=O)Cc2cccc(NC(=O)C3CCN(S(=O)(=O)c4cccc([N+](=O)[O-])c4)CC3)c2)c1)C1CC1,"inconclusive: 20.6 µM [inhibitor, single point]",–
Cc1cccc(C(=O)N2c3nc(-c4ccco4)nn3C3(CCCCC3)[C@@H]3CCCC[C@@H]32)c1,"inconclusive: 18.4 µM [inhibitor, single point]",–
COc1ccccc1N/C(N)=N/c1nc(C)cc(C)n1,"inconclusive: 29.1 µM [inhibitor, single point]",–
COc1ccc(CN2CCN(C(=O)CCC(=O)Nc3nnc(C(C)C)s3)CC2)cc1F,"inconclusive: 16.4 µM [inhibitor, partial curve]",–
OCC[C@@H]1C[C@H](O)[C@@H](O)[C@]2(OCc3ccc(CO)cc32)O1,–,inactive: 3.63%
CCn1cc(C(=S)N2CCC(C(N)=O)CC2)c2ccccc21,"inconclusive: 14.6 µM [inhibitor, partial curve, poor fit]",–
CCC(=O)Nc1ccc(NCc2cccs2)cc1,–,inactive: -12.6%
COc1ccc(-c2nc(C#N)c(NCC3CCCO3)o2)cc1 (stereo not drawn),–,inconclusive: -31% [inhibitor]
CN1c2ccccc2Sc2cc(N)ccc21,active: 16.4 µM,–
CCC(=O)N1Cc2cc(C(=O)NCc3cccc(F)c3)nc(-c3cccc(C4=CCCC4)c3)c2[C@H]1CCO,"inconclusive: 29.1 µM [inhibitor, single point]",–
O=c1ccc(-c2ccccc2)nn1Cc1ccc(F)cc1Cl,"inactive and inconclusive: 25.9 µM [inhibitor, single point]",–
CCCNC(=O)C1(C)CCCN(Cc2ccc(C)cc2)C1 (stereo not drawn),"inconclusive: 20.6 µM [inhibitor, partial curve]",–
C=CCC1Cc2c(cccc2[N+](=O)[O-])C(CC=C)N1 (stereo not drawn),–,inactive: 6.94%
COc1ccc(-c2[nH]c(-c3ccc(F)cc3)nc2SCC(=O)NC2CCCC2)cc1,"inconclusive: 29.1 µM [inhibitor, single point]",–
CC(C)N(C)CCOC(=O)c1ccccc1Br,"inconclusive: 16.4 µM [inhibitor, single point]",–
CCn1cc(C(=O)O)c(=O)c2cc(F)c(N3CCN(C(=O)Nc4ccccc4)CC3)cc21,active: 23.1 µM,–
CC(C)Cn1c(N)c(C(=O)COC(=O)c2ccncc2)c(=O)n(C)c1=O,"inconclusive: 18.4 µM [inhibitor, single point]",–
Cc1ccc(S(=O)(=O)Nc2c(O)ccc3ccccc23)cc1,–,inactive: -29.2%
Cc1ccc(NC(=O)CN(C)C(=O)CNC(=O)c2sc3ccccc3c2Cl)cc1,"inconclusive: 29.1 µM [inhibitor, single point]",–
COc1ccccc1/C=C1\SC(=S)N(CCC(=O)Nc2nnc(C)s2)C1=O,–,inactive: -25.7%

SMILES,Potency,"activity change, negative = growth inhibition"
COc1ccc(NC(=O)c2ccc(C(=O)c3ccccc3)o2)cc1,active: 2.06 µM,–
Cc1ccc(CNC(=O)C2CC(c3cc(C(F)(F)F)cc(C(F)(F)F)c3)=NO2)o1 (stereo not drawn),active: 4.61 µM,–
Cc1c(C(=O)Nc2cccc(-c3nc4ccccc4s3)c2)oc2ccccc12,active: 18.4 µM,–
O=C(CSC(=S)N1CCCC1)c1cc(Br)cc(Br)c1O,"inconclusive: 29.1 µM [inhibitor, single point]",–
COCOc1ccc(C=O)c(OCOC)c1,"inconclusive: 29.1 µM [inhibitor, single point]",–
COc1ccc(C(=O)n2nc(-c3ccco3)nc2SC)cc1OC,–,inconclusive: -34.1% [inhibitor]
CC1(C)C2CC=C(/C=N/NC(=S)NCCc3ccccc3)C1C2 (stereo not drawn),"inconclusive: 29.1 µM [inhibitor, single point]",–
Cc1c(Br)cc(C(=O)NC2CCCCC2)c(C)c1C,–,inactive: -28.6%
Cc1ccccc1Cn1c(=O)n(Cc2ccco2)c(=O)c2ccccc21,"inconclusive: 29.1 µM [inhibitor, single point]",–
CC(=O)Nc1ccc(NC(=O)C2CCC(N3C(=O)C4C5C=CC(C6CC56)C4C3=O)CC2)cc1 (stereo not drawn),–,inactive: -11.9%
COCCNc1nc(NCCCN(C)C)c2sccc2n1,–,inactive: -13.4%
O=C(NCCc1nc(-c2ccccc2)no1)c1ccccc1,–,inactive: -3.9%
O=C(NC(=S)N1CCCCCC1)c1ccccc1,"inconclusive: 29.1 µM [inhibitor, single point]",–
Cc1ccc(S(=O)(=O)N2CCCN(C(=O)c3ccc(-n4cccn4)cc3)CC2)cc1,"inconclusive: 25.9 µM [inhibitor, single point]",–
Cc1c(Cl)cccc1NC(=S)NCCc1ccc(F)cc1,–,inactive: -19.5%
CCCCCCSc1nnc2c(n1)OC(C)Nc1ccc(Br)cc1-2 (stereo not drawn),–,inactive: -0.45%
COc1ccc(N2C(=O)CSC2c2ccc(F)cc2)cc1 (stereo not drawn),–,inactive: -14.2%
O=C(Nc1nc2ccccc2[nH]1)c1ccc(Cl)c(S(=O)(=O)N2CCCC2)c1,active: 16.4 µM,–
COC(=O)c1ccc(Oc2nc(Nc3ccc(F)cc3)nc(N3CCCC3)n2)cc1,"inconclusive: 14.6 µM [inhibitor, partial curve]",–
O=C(O)C1CCN(S(=O)(=O)c2ccc3[nH]ccc3c2)CC1,–,inactive: -4.23%
CC(C)C1Nc2ccc(C(=O)NCc3ccco3)cc2NC1=O (stereo not drawn),"inconclusive: 25.9 µM [inhibitor, single point]",–
CCOC(=O)C1CCN(S(=O)(=O)c2ccc(C)cc2)CC1,–,inactive: -2.42%
O=C(c1cccs1)N1C[C@@H](O)[C@H](n2cc(C3CC3)nn2)C[C@@H]1c1ccccc1,"inconclusive: 18.4 µM [inhibitor, partial curve]",–
O=C(COc1cc(O)c2c(=O)cc(-c3ccccc3)oc2c1)c1cccc([N+](=O)[O-])c1,"inconclusive: 3.66 µM [inhibitor, full curve, poor fit]",–
